# Results published in PubChem BioAssay AID463173 (ICCB-Longwood Screening Facility, Harvard Medical School, 2010).
# Among all 52,000 compounds or so, about 4,300 (8.3%) were called active. No stated cut-off is given here; in the data, active means survival mostly below about 52% (no sharp cut-off); inactive means mostly above about 56%. The list shows a part of the results.
# System: DeltatarO mutant
# Assay: S. aureus survival, RN4220 and DeltatarO strains – OD600, teichoic acid synthesis inhibitors, primary screen (AID 463173)
# Settings: S. aureus RN4220 wild type/DeltatarO growth, OD600, 18 h, stronger effect = lower value, screened at 18.75 µg/mL (by protocol)
row,SMILES,survival
1,FC(F)(F)c1cccc(N2CCN(Cc3nnc(-c4ccccc4)o3)CC2)c1,inactive: 48%
2,CCOc1ccccc1CNC(=O)c1ccc(Cn2c(=O)c3cccn3c3cccnc32)cc1,active: 44%
3,CC(C)c1ccc(-c2noc(SCC(=O)N3CCCCC3)n2)cc1,inactive: 72%
4,CCCN(CCC)CCCNC(=O)c1nn(C)c2c1CS(=O)(=O)c1ccccc1-2,inactive: 106%
5,CC(=O)Nc1nonc1-c1nnc(SCc2cccc(Br)c2)n1C,inactive: 105%
6,O=C(Nc1ccc(N2CCN(C(=O)c3ccco3)CC2)cc1)c1ccccc1,inactive: 93%
7,COc1ccc(/C=C(\C#N)c2nc(-c3cc4ccccc4oc3=O)cs2)cc1OC,inactive: 65%
8,CC1CCN(S(=O)(=O)c2ccc3nc(N4CCN(c5ccccc5F)CC4)ccc3c2)CC1,inactive: 97%
9,COC(=O)c1cccnc1-n1c(=O)c2cccnc2n(CC(=O)Nc2cccc(C(F)(F)F)c2)c1=O,inactive: 72%
10,CCOc1cc(C2CC(=O)Nc3c2c(C)nn3-c2nc(C)cc(C)n2)ccc1O (centres undefined),inactive: 82%
11,Cc1ccc(-c2onc(C)c2C)cc1S(=O)(=O)NC1CCC(C)CC1 (centres undefined),inactive: 82%
12,COc1ccccc1N1CCN(C(=O)c2oc3ccccc3c2N)CC1,inactive: 52%
13,CCOC(=O)C1CCN(C(=O)c2nn(-c3ccc(C)cc3)c(=O)n(C)c2=O)CC1,inactive: 69%
14,COC(=O)c1c(-c2cccs2)csc1NC(=O)COc1ccc(C(C)C)cc1,inactive: 72%
15,CCOc1ccc(CNC(=O)c2cnc(SC)nc2C)cc1,inactive: 107%
16,CCc1ccc(CNC(=O)c2ccc(CS(=O)(=O)Cc3ccccc3C)o2)cc1,inactive: 79%
17,O=C(Nc1ccc(Cl)cc1C(F)(F)F)c1cc(S(=O)(=O)NCc2ccccc2)ccc1F,inactive: 130%
18,CCN(CC)C(=O)C1CCN(C(=O)c2cnn(-c3ccccc3)c2-n2cccc2)CC1,inactive: 83%
19,CCOC(=O)CSc1nc2ccccc2n2c(C)nnc12,inactive: 92%
20,COc1ccc(CNC(=O)CCS(=O)(=O)c2ccc3c(c2)CC(C)N3C(=O)C2CC2)cc1 (centres undefined),inactive: 95%
21,Cc1ccc(NC(=O)C(C)Sc2n[nH]c(-c3ccccc3O)n2)cc1 (centres undefined),active: 23%
22,COc1cccc(NC(=O)CN2C(=O)C3(SCC(=O)N3c3cc(C)cc(C)c3)c3ccccc32)c1 (centres undefined),inactive: 83%
23,Cc1ccc(NC(=O)C2CCN(S(=O)(=O)c3c(C)noc3C)CC2)cc1C,inactive: 91%

row,SMILES,survival
1,Cc1ccc(CN2C(=O)N(c3ccc(C)c(Cl)c3)S(=O)(=O)c3ccccc32)cc1,inactive: 83%
2,N#Cc1ccc(NC(=O)COCc2cc(-c3ccc(F)cc3)on2)cc1,inactive: 60%
3,COC(=O)c1cc2oc(C)cc2n1Cc1ccc(Cl)cc1,inactive: 73%
4,CCN1CCN(c2ncc3c(n2)CCN(Cc2ccc(C)s2)C3)CC1,inactive: 64%
5,Cc1cccc(CCNC(=O)c2nc(-c3ccc(Cl)cc3)n3c2CCCCC3)c1,inactive: 89%
6,CC(=O)c1ccc(NC(=O)COc2ccccc2-c2nc(C)no2)cc1,inactive: 95%
7,CCn1c2c(c(=O)n3ncc(C(=O)Nc4ccc(F)c(Cl)c4)c13)CN(Cc1ccc(OC)cc1)CC2,active: 17%
8,CCOc1ccc(C(=O)OCc2cc(=O)n3nc(C(C)C)sc3n2)cc1,inactive: 96%
9,CC(C)CC(=O)N(Cc1ccccc1)S(=O)(=O)c1ccc2c(c1)oc(=O)n2C,inactive: 105%
10,Cc1ccc(Cl)cc1N1CCN(C(=O)c2cn(C)c3ccc(S(=O)(=O)N4CCCC4)cc3c2=O)CC1,inactive: 124%
11,CCOc1ccc(-n2ccnc2SCC(=O)Nc2ccc(OC)cc2OC)cc1,inactive: 67%
12,CC1=C(C(=O)OC2CCCC2)C(c2cccc(Cl)c2Cl)CC(=O)N1 (centres undefined),inactive: 65%
13,O=C(CC(=O)Nn1cnnc1)Nn1cnnc1,inactive: 91%
14,O=C(Cn1c(=O)n(-c2ccccc2)c(=O)c2c3c(sc21)CCCC3)Nc1ccc(F)cc1,inactive: 98%
15,COc1ccccc1N1CCN(C(=O)c2cc3c(=O)n(Cc4cccnc4)ccc3nc2C)CC1,inactive: 91%
16,CCOc1ccccc1NC(=O)NC(CC)c1c(-n2cccc2)sc2c1CCN(C)C2 (centres undefined),inactive: 73%
17,CCc1ccc(Nc2nc3ccccc3c3nnc(C)n23)cc1,inactive: 92%
18,Cc1cccc(N2CCN(C(=O)c3ccc4c(c3)CCN4S(=O)(=O)c3ccccc3)CC2)c1C,inactive: 54%
19,CC(=O)c1cc(-c2ccccc2)n(CC(=O)Nc2ccc(C)cc2C)c1C,inactive: 87%
20,Cc1ccc(-c2nc(CS(=O)CC(=O)O)c(C)o2)cc1 (centres undefined),inactive: 91%
21,Cc1ccc(S(=O)(=O)c2cn(CC(=O)Nc3ccccc3)c3cc4c(cc3c2=O)OCO4)cc1,inactive: 51%
22,CC(=O)Nc1cc(C(C)(C)C)nn1C,inactive: 93%
23,CC(=O)c1ccc(OC(=O)c2c(-c3ccccc3Cl)noc2C)cc1,inactive: 94%

row,SMILES,survival
1,CCCN(CCC)S(=O)(=O)c1ccc(C(=O)N2CCn3c4c(c5cc(C)ccc53)CCCC42)cc1 (centres undefined),inactive: 58%
2,O=C(COc1ccc(Cl)cc1Cl)Nc1ccc(C(=O)OC2CCCCC2)cc1,inactive: 57%
3,Cn1nc(C(=O)Nc2cccc(C(F)(F)F)c2)c2c1-c1ccccc1S(=O)(=O)C2,inactive: 50%
4,Cc1occc1C(=O)Nc1ccc2ccccc2c1,inactive: 92%
5,CCOc1ccc(NS(=O)(=O)c2ccc3[nH]cc(C(=O)NCCc4ccccc4)c(=O)c3c2)cc1,inactive: 67%
6,Cn1c(SCC(=O)Nc2ccccc2F)nc2c([nH]c3ccccc32)c1=O,inactive: 115%
7,CCOC(=O)c1cc(OC(=O)c2cc(Cl)ccc2OC)n(-c2ccccc2)n1,inactive: 68%
8,CCc1ccc(S(=O)(=O)c2nnn3c2nc(NCCC(C)C)c2cc(Cl)ccc23)cc1,inactive: 67%
9,COc1ccc(N2CCN(CNC(=O)c3ccccc3)CC2)cc1,inactive: 95%
10,CCOC(=O)c1ccc(NC(=O)C2CCCN(c3cnccn3)C2)cc1 (centres undefined),inactive: 74%
11,COc1ccc(Oc2ncnc3c2oc2ccccc23)cc1,inactive: 55%
12,COc1cccc(/C=C(\C#N)c2nc3ccccc3c(=O)[nH]2)c1OC,inactive: 84%
13,CCCC(C(=O)Nc1cc(C)c(Cl)cc1OC)N1Cc2ccccc2C1=O (centres undefined),inactive: 81%
14,COc1cc(NC(=O)Cn2cc(S(=O)(=O)N3CCC(C)CC3)c3ccccc3c2=O)cc(OC)c1OC,inactive: 72%
15,CCOC(=O)C1=C(CNCc2ccc(Cl)cc2)NC(=O)NC1c1ccccc1 (centres undefined),inactive: 102%
16,CC(=O)N1c2ccccc2CC1C(=O)N1CCN(c2ccccc2F)CC1 (centres undefined),inactive: 76%
17,COc1ccc(CCNC(=O)Cn2nc(-c3ccc(Cl)cc3)ccc2=O)cc1OC,inactive: 75%
18,CCOc1ccc(Nc2ncnc3onc(-c4ccc(Cl)cc4)c23)cc1,active: 38%
19,COc1cn(CC(=O)Nc2cccc(C)c2)c(CN2CCCCC2)cc1=O,inactive: 85%
20,Cc1cc(C)cc(OC(C)C(=O)Nc2nc3c(s2)CCCC3)c1 (centres undefined),inactive: 79%
21,Cc1cc(NC(=O)S(=O)(=O)c2ccccc2)ccc1NC(=O)c1ccco1,inactive: 65%
22,O=S(=O)(c1ccccc1)N1CCc2ccccc2C1,inactive: 114%
23,Cc1ccc(C2C(=O)N(C3CCCCCC3)CC(=O)N2CCC2=CCCCC2)cc1 (centres undefined),inactive: 86%

row,SMILES,survival
1,Cc1ccc(N2CCN(C(=O)CCS(=O)(=O)c3cc4c(cc3Cl)NC(=O)CO4)CC2)c(C)c1,inactive: 84%
2,CC1CCN(c2nc3c(S(=O)(=O)c4cccc(Cl)c4)nnn3c3ccsc23)CC1,inactive: 81%
3,COc1cc([N+](=O)[O-])ccc1NC(=O)N1CCC2(CC1)Nc1cc(F)ccc1-n1cccc12,active: 46%
4,CC(C)(C)OC(=O)N1CCC(c2c(C(=O)N3CCN(c4ncccn4)CC3)cnn2-c2ccc(F)cc2)CC1,active: 17%
5,CCOC(=O)c1c(-c2ccc(OC)cc2)oc2ccc(OCc3ccc(F)cc3F)cc12,active: 38%
6,Cc1ccccc1Nc1nnc(-c2ccc(C)c(S(=O)(=O)NCC3CCCO3)c2)c2ccccc12 (centres undefined),inactive: 79%
7,CN(C)c1ccc(CNC(=O)C2CCN(C(=O)c3ccc(-n4ccc5ccccc54)s3)CC2)cc1,inactive: 80%
8,CCn1cc(/C=C(\NC(=O)c2ccc(OC)c(OC)c2)C(=O)NCCCn2ccnc2)c2ccccc21,inactive: 113%
9,CCOC(=O)c1cc(-c2ccc(OC)cc2)n(CCC(=O)NCCc2ccc(OCC)c(OCC)c2)c1C,inactive: 69%
10,Cc1ccc(NC(=O)N2CCC(CN3CCCCC3)CC2)c(Cl)c1,inactive: 77%
11,C=CCn1cc(/C=C(/C#N)C(=O)OCC)c2ccccc21,inactive: 83%
12,Cc1ccc(OCC(=O)Nc2ccc(C(=O)OCc3cc(=O)n4ccsc4n3)cc2)cc1C,inactive: 101%
13,CC(=O)c1ccc(N2CCN(S(=O)(=O)c3ccc(-c4cnc(C5CC5)o4)cc3)CC2)cc1,inactive: 73%
14,COC(CN1C(=O)c2ccccc2C1=O)OC,inactive: 56%
15,Cc1nc2sccn2c(=O)c1S(=O)(=O)Nc1cccc(Cl)c1C,inactive: 68%
16,CCC1=C(c2ccc(C)cc2)S(=O)(=O)N=C1N1CCC(C(=O)NCCc2cccc(OC)c2)CC1,inactive: 76%
17,COc1cccc2c1cc1c(=O)n(CC(=O)NCCCN3CCN(C)CC3)nc(C)n12,inactive: 100%
18,COc1ccc(OCCCn2c(C)nc3cc(C)c(C)cc32)cc1,inactive: 52%
19,O=C1Nc2c(c(=O)[nH]c(=O)n2-c2ccc(F)cc2)C1(NS(=O)(=O)c1ccc(Cl)cc1)C(F)(F)F (centres undefined),inactive: 59%
20,Cn1nnnc1SCCCNCc1cc(Cl)ccc1OCc1ccccc1,inactive: 72%
